From the supplement of paper PMC12230231

Each sequence was assayed on SIVsab (simian immunodeficiency virus of sabaeus monkeys), single-cycle GFP reporter, in CRFK cells (assay: enrichment among uninfected cells over input (fold); higher = stronger restriction). Conditions: library: human / rhesus combinations.
Procedure: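 Pools of CRFK cells expressing variants of the TRIM5α v1 loop were challenged with the single-cycle reporter, sorted by GFP and sequenced; mean of two replicates.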
For “MASGILVNVKEEVTCPICLELLTQPLSLDCGHSFCQACLTANHKKSMLDKGESSCPVCRISYQPENIRPNRHVANIVEKLREVKLSPEGQKVDHCARHGEKLLLFCQEDGKVICWLCERSQEHRGHHTFLTEEVAREYQVKLQAALEMLRQKQQEAEELEADIREEKASWKTQIQYDKTNVLADFEQLRDILDWEESNELQNLEKEEEDILKSLTNSETEMVQQTQSLRELISDLEHRLQGSVMELLQGVDGVIKRTENVTLKKPETFPKNQRRVFRAPDLKGMLEVFRELTDVRRYWVDVTVAPNNISCAVISEDKRQVSSPKPQIIYGAPGTLYTFPTFTNFNYCTGILGSQSITSGKHYWEVDVSKKTAWILGVCAGFQPDAMCNIEKNENYQPKYGYWVIGLEEGVKCSAFQDSSFHTPSVPFIVPLSVIICPDRVGVFLDYEACTVSFFNITNHGFLIYKFSHCSFSQPVFPYLNPRKCGVPMTLCSPSS [human TRIM5α, 330-340 = GAPGTLYTFPTFT]”, the enrichment was 0.049 ± 0.069. In the case of “MASGILVNVKEEVTCPICLELLTQPLSLDCGHSFCQACLTANHKKSMLDKGESSCPVCRISYQPENIRPNRHVANIVEKLREVKLSPEGQKVDHCARHGEKLLLFCQEDGKVICWLCERSQEHRGHHTFLTEEVAREYQVKLQAALEMLRQKQQEAEELEADIREEKASWKTQIQYDKTNVLADFEQLRDILDWEESNELQNLEKEEEDILKSLTNSETEMVQQTQSLRELISDLEHRLQGSVMELLQGVDGVIKRTENVTLKKPETFPKNQRRVFRAPDLKGMLEVFRELTDVRRYWVDVTVAPNNISCAVISEDKRQVSSPKPQIIYGAPGTLYTFPSFTNFNYCTGILGSQSITSGKHYWEVDVSKKTAWILGVCAGFQPDAMCNIEKNENYQPKYGYWVIGLEEGVKCSAFQDSSFHTPSVPFIVPLSVIICPDRVGVFLDYEACTVSFFNITNHGFLIYKFSHCSFSQPVFPYLNPRKCGVPMTLCSPSS [human TRIM5α, 330-340 = GAPGTLYTFPSFT]”, the enrichment is reported as 0.193 ± 0.1. Work on “MASGILVNVKEEVTCPICLELLTQPLSLDCGHSFCQACLTANHKKSMLDKGESSCPVCRISYQPENIRPNRHVANIVEKLREVKLSPEGQKVDHCARHGEKLLLFCQEDGKVICWLCERSQEHRGHHTFLTEEVAREYQVKLQAALEMLRQKQQEAEELEADIREEKASWKTQIQYDKTNVLADFEQLRDILDWEESNELQNLEKEEEDILKSLTNSETEMVQQTQSLRELISDLEHRLQGSVMELLQGVDGVIKRTENVTLKKPETFPKNQRRVFRAPDLKGMLEVFRELTDVRRYWVDVTVAPNNISCAVISEDKRQVSSPKPQIIYQAPGTLYQSFVNFNYCTGILGSQSITSGKHYWEVDVSKKTAWILGVCAGFQPDAMCNIEKNENYQPKYGYWVIGLEEGVKCSAFQDSSFHTPSVPFIVPLSVIICPDRVGVFLDYEACTVSFFNITNHGFLIYKFSHCSFSQPVFPYLNPRKCGVPMTLCSPSS [human TRIM5α, 330-340 = QAPGTLYQSFV]” yielded an enrichment of 0.00408 ± 0.0018. “MASGILVNVKEEVTCPICLELLTQPLSLDCGHSFCQACLTANHKKSMLDKGESSCPVCRISYQPENIRPNRHVANIVEKLREVKLSPEGQKVDHCARHGEKLLLFCQEDGKVICWLCERSQEHRGHHTFLTEEVAREYQVKLQAALEMLRQKQQEAEELEADIREEKASWKTQIQYDKTNVLADFEQLRDILDWEESNELQNLEKEEEDILKSLTNSETEMVQQTQSLRELISDLEHRLQGSVMELLQGVDGVIKRTENVTLKKPETFPKNQRRVFRAPDLKGMLEVFRELTDVRRYWVDVTVAPNNISCAVISEDKRQVSSPKPQIIYGARGTRYTFPSLVNFNYCTGILGSQSITSGKHYWEVDVSKKTAWILGVCAGFQPDAMCNIEKNENYQPKYGYWVIGLEEGVKCSAFQDSSFHTPSVPFIVPLSVIICPDRVGVFLDYEACTVSFFNITNHGFLIYKFSHCSFSQPVFPYLNPRKCGVPMTLCSPSS [human TRIM5α, 330-340 = GARGTRYTFPSLV]” gave an enrichment of 0.164 ± 0.13. Sequence “MASGILVNVKEEVTCPICLELLTQPLSLDCGHSFCQACLTANHKKSMLDKGESSCPVCRISYQPENIRPNRHVANIVEKLREVKLSPEGQKVDHCARHGEKLLLFCQEDGKVICWLCERSQEHRGHHTFLTEEVAREYQVKLQAALEMLRQKQQEAEELEADIREEKASWKTQIQYDKTNVLADFEQLRDILDWEESNELQNLEKEEEDILKSLTNSETEMVQQTQSLRELISDLEHRLQGSVMELLQGVDGVIKRTENVTLKKPETFPKNQRRVFRAPDLKGMLEVFRELTDVRRYWVDVTVAPNNISCAVISEDKRQVSSPKPQIIYGAPGTRFTFPTLVNFNYCTGILGSQSITSGKHYWEVDVSKKTAWILGVCAGFQPDAMCNIEKNENYQPKYGYWVIGLEEGVKCSAFQDSSFHTPSVPFIVPLSVIICPDRVGVFLDYEACTVSFFNITNHGFLIYKFSHCSFSQPVFPYLNPRKCGVPMTLCSPSS [human TRIM5α, 330-340 = GAPGTRFTFPTLV]” has an enrichment of 0.188 ± 0.014. “MASGILVNVKEEVTCPICLELLTQPLSLDCGHSFCQACLTANHKKSMLDKGESSCPVCRISYQPENIRPNRHVANIVEKLREVKLSPEGQKVDHCARHGEKLLLFCQEDGKVICWLCERSQEHRGHHTFLTEEVAREYQVKLQAALEMLRQKQQEAEELEADIREEKASWKTQIQYDKTNVLADFEQLRDILDWEESNELQNLEKEEEDILKSLTNSETEMVQQTQSLRELISDLEHRLQGSVMELLQGVDGVIKRTENVTLKKPETFPKNQRRVFRAPDLKGMLEVFRELTDVRRYWVDVTVAPNNISCAVISEDKRQVSSPKPQIIYQARGTRFQSFVNFNYCTGILGSQSITSGKHYWEVDVSKKTAWILGVCAGFQPDAMCNIEKNENYQPKYGYWVIGLEEGVKCSAFQDSSFHTPSVPFIVPLSVIICPDRVGVFLDYEACTVSFFNITNHGFLIYKFSHCSFSQPVFPYLNPRKCGVPMTLCSPSS [human TRIM5α, 330-340 = QARGTRFQSFV]” showed an enrichment of 0.00168 ± 0.0012. In the case of “MASGILVNVKEEVTCPICLELLTQPLSLDCGHSFCQACLTANHKKSMLDKGESSCPVCRISYQPENIRPNRHVANIVEKLREVKLSPEGQKVDHCARHGEKLLLFCQEDGKVICWLCERSQEHRGHHTFLTEEVAREYQVKLQAALEMLRQKQQEAEELEADIREEKASWKTQIQYDKTNVLADFEQLRDILDWEESNELQNLEKEEEDILKSLTNSETEMVQQTQSLRELISDLEHRLQGSVMELLQGVDGVIKRTENVTLKKPETFPKNQRRVFRAPDLKGMLEVFRELTDVRRYWVDVTVAPNNISCAVISEDKRQVSSPKPQIIYQAPGTRFTFQSFVNFNYCTGILGSQSITSGKHYWEVDVSKKTAWILGVCAGFQPDAMCNIEKNENYQPKYGYWVIGLEEGVKCSAFQDSSFHTPSVPFIVPLSVIICPDRVGVFLDYEACTVSFFNITNHGFLIYKFSHCSFSQPVFPYLNPRKCGVPMTLCSPSS [human TRIM5α, 330-340 = QAPGTRFTFQSFV]”, the enrichment is reported as 0.46 ± 0.057. “MASGILVNVKEEVTCPICLELLTQPLSLDCGHSFCQACLTANHKKSMLDKGESSCPVCRISYQPENIRPNRHVANIVEKLREVKLSPEGQKVDHCARHGEKLLLFCQEDGKVICWLCERSQEHRGHHTFLTEEVAREYQVKLQAALEMLRQKQQEAEELEADIREEKASWKTQIQYDKTNVLADFEQLRDILDWEESNELQNLEKEEEDILKSLTNSETEMVQQTQSLRELISDLEHRLQGSVMELLQGVDGVIKRTENVTLKKPETFPKNQRRVFRAPDLKGMLEVFRELTDVRRYWVDVTVAPNNISCAVISEDKRQVSSPKPQIIYGAPGTRYPTLVNFNYCTGILGSQSITSGKHYWEVDVSKKTAWILGVCAGFQPDAMCNIEKNENYQPKYGYWVIGLEEGVKCSAFQDSSFHTPSVPFIVPLSVIICPDRVGVFLDYEACTVSFFNITNHGFLIYKFSHCSFSQPVFPYLNPRKCGVPMTLCSPSS [human TRIM5α, 330-340 = GAPGTRYPTLV]” showed an enrichment of 0.0122 ± 0.0017.

Same assay, conditions: library: insertions and deletions
With “MASGILVNVKEEVTCPICLELLTQPLSLDCGHSFCQACLTANHKKSMLDKGESSCPVCRISYQPENIRPNRHVANIVEKLREVKLSPEGQKVDHCARHGEKLLLFCQEDGKVICWLCERSQEHRGHHTFLTEEVAREYQVKLQAALEMLRQKQQEAEELEADIREEKASWKTQIQYDKTNVLADFEQLRDILDWEESNELQNLEKEEEDILKSLTNSETEMVQQTQSLRELISDLEHRLQGSVMELLQGVDGVIKRTENVTLKKPETFPKNQRRVFRAPDLKGMLEVFRELTDVRRYWVDVTVAPNNISCAVISEDKRQVSSPKPQIARGTRYQTFVNFNYCTGILGSQSITSGKHYWEVDVSKKTAWILGVCAGFQPDAMCNIEKNENYQPKYGYWVIGLEEGVKCSAFQDSSFHTPSVPFIVPLSVIICPDRVGVFLDYEACTVSFFNITNHGFLIYKFSHCSFSQPVFPYLNPRKCGVPMTLCSPSS [human TRIM5α, 3-codon deletion at 328]” the enrichment was 0.991 ± 0.61. For “MASGILVNVKEEVTCPICLELLTQPLSLDCGHSFCQACLTANHKKSMLDKGESSCPVCRISYQPENIRPNRHVANIVEKLREVKLSPEGQKVDHCARHGEKLLLFCQEDGKVICWLCERSQEHRGHHTFLTEEVAREYQVKLQAALEMLRQKQQEAEELEADIREEKASWKTQIQYDKTNVLADFEQLRDILDWEESNELQNLEKEEEDILKSLTNSETEMVQQTQSLRELISDLEHRLQGSVMELLQGVDGVIKRTENVTLKKPETFPKNQRRVFRAPDLKGMLEVFRELTDVRRYWVDVTVAPNNISCAVISEDKRQVSSPKPQIIYGARGTRYQTFVLGSQSITSGKHYWEVDVSKKTAWILGVCAGFQPDAMCNIEKNENYQPKYGYWVIGLEEGVKCSAFQDSSFHTPSVPFIVPLSVIICPDRVGVFLDYEACTVSFFNITNHGFLIYKFSHCSFSQPVFPYLNPRKCGVPMTLCSPSS [human TRIM5α, 8-codon deletion at 341]”, the enrichment was 0.916 ± 0.45. Sequence “MASGILVNVKEEVTCPICLELLTQPLSLDCGHSFCQACLTANHKKSMLDKGESSCPVCRISYQPENIRPNRHVANIVEKLREVKLSPEGQKVDHCARHGEKLLLFCQEDGKVICWLCERSQEHRGHHTFLTEEVAREYQVKLQAALEMLRQKQQEAEELEADIREEKASWKTQIQYDKTNVLADFEQLRDILDWEESNELQNLEKEEEDILKSLTNSETEMVQQTQSLRELISDLEHRLQGSVMELLQGVDGVIKRTENVTLKKPETFPKNQRRVFRAPDLKGMLEVFRELTDVRRYWVDVTVAPNNISCAVISEDKRQVSSPKPQIIYGARGQIIYGARGTRYQTFVNFNYCTGILGSQSITSGKHYWEVDVSKKTAWILGVCAGFQPDAMCNIEKNENYQPKYGYWVIGLEEGVKCSAFQDSSFHTPSVPFIVPLSVIICPDRVGVFLDYEACTVSFFNITNHGFLIYKFSHCSFSQPVFPYLNPRKCGVPMTLCSPSS [human TRIM5α, 8-codon duplication at 326]” has an enrichment of 0.462 ± 0.26. “MASGILVNVKEEVTCPICLELLTQPLSLDCGHSFCQACLTANHKKSMLDKGESSCPVCRISYQPENIRPNRHVANIVEKLREVKLSPEGQKVDHCARHGEKLLLFCQEDGKVICWLCERSQEHRGHHTFLTEEVAREYQVKLQAALEMLRQKQQEAEELEADIREEKASWKTQIQYDKTNVLADFEQLRDILDWEESNELQNLEKEEEDILKSLTNSETEMVQQTQSLRELISDLEHRLQGSVMELLQGVDGVIKRTENVTLKKPETFPKNQRRVFRAPDLKGMLEVFRELTDVRRYWVDVTVAPNNISCAVISEDKRQVSSPKPQIIYGARGTRYQTNYCTGILGSQSITSGKHYWEVDVSKKTAWILGVCAGFQPDAMCNIEKNENYQPKYGYWVIGLEEGVKCSAFQDSSFHTPSVPFIVPLSVIICPDRVGVFLDYEACTVSFFNITNHGFLIYKFSHCSFSQPVFPYLNPRKCGVPMTLCSPSS [human TRIM5α, 4-codon deletion at 339]” showed an enrichment of 1.88 ± 0.07.

± gives the standard deviation of the averaged measurements. Restriction of a single-cycle SIVsab GFP reporter by TRIM5α v1-loop variants in CRFK cells. Human variants: read share among cells still uninfected after two challenges over input, higher = gained restriction. Rhesus variants: share among infected cells over input, higher = lost restriction. Reporter dose not given per row. No active / inactive call per row; the paper calls a change when both replicates lie above its controls (mean + 2 SD of stop or wild-type variants, or the top frameshift score). Residues outside the varied loop are taken from Swiss-Prot. The paper reads the human single-substitution scores as noise; they and the rhesus combinations repeat poorly (rank correlation 0.3 to 0.4), indel scores repeat only for the top variants, rhesus substitutions well (0.9).
